Reference: the supplement of paper PMC12645437, “Orthogonal IMiD-Degron Pairs Induce Selective Protein Degradation in Cells” (ACS Chemical Biology, 2025)
The other results are listed elsewhere or left out.

Biological target: no compound (DMSO)
Test: log2 fold change of degron read counts, EGFP-low vs EGFP+ sorted cells; higher = lower degron-EGFP level without compound (poor expression or instability)
Conditions: compound: DMSO control; 18 h
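Note: jurkat cells carrying a lentiviral library of mutant zinc finger degrons fused to EGFP plus mCherry, mCherry+ cells FACS sorted, degron abundance counted by next-generation sequencing.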

Sequence	log2 fold change of degron read counts
FWCPQCGADFTQKGNLLRHIKL	-0.309
FSCNQCGRFFTQKGNLLRHIKL	0.444
FRCNQCGANFTQKGNLLRHIKL	-0.525
LWCNQCGFTCTQKGNLLRHIKL	1.69
FFCNQCGAGFTQKGNLLRHIKL	-0.172
FWCPICGRSFTQKGNLLRHIKL	-0.117
FSCSVCGHRFTQKGNLLRHIKL	0.0181
FSCEICGHQFTQKGNLLRHIKL	-2.78
FWCPICGRTFTQKGNLLRHIKL	0.481
FLCPICGRGFTQKGNLLRHIKL	-0.421
FCCSVCGHMFTQKGNLLRHIKL	0.124
FVCPICGADFTQKGNLLRHIKL	-1.19
FCCDICGAVFTQKGNLLRHIKL	-1.7
FTCEVCGAVFTQKGNLLRHIKL	-0.926
LNCEICGFSCTQKGNLLRHIKL	-0.347
FDCSVCGHTFTQKGNLLRHIKL	-0.918

Sequence	log2 fold change of degron read counts
LQCNQCGFQCTQKGNLLRHIKL	-0.0555
FRCEICGHTFTQKGNLLRHIKL	-1.86
LECNQCGFRCTQKGNLLRHIKL	-0.409
FACNVCGAEFTQKGNLLRHIKL	-1.17
FTCNICGAKFTQKGNLLRHIKL	-0.841
FHCNVCGAIFTQKGNLLRHIKL	0.358
FRCPQCGADFTQKGNLLRHIKL	-1.71
FLCEICGAQFTQKGNLLRHIKL	-2.24
LTCEICGFCCTQKGNLLRHIKL	-0.512
FDCPICGRYFTQKGNLLRHIKL	0.765
FMCPQCGARFTQKGNLLRHIKL	-0.646
FLCEICGAHFTQKGNLLRHIKL	-1.77
FMCPQCGAMFTQKGNLLRHIKL	-0.0818
FICEICGHHFTQKGNLLRHIKL	-1.57
FNCDVCGACFTQKGNLLRHIKL	-0.837
FVCEICGAQFTQKGNLLRHIKL	-1.97
